Assay results published in PMC4336329 (PLoS ONE, 2015).
Out of some 310,000 compounds screened, about 2,200 (0.71%) showed an effect of 50% or more. The effect is printed as a negative number. Some of the results follow.

Molecular target: human ether-à-go-go-related gene (hERG) potassium channel (human, UniProt Q12809)
Assay: primary screen, population patch clamp on CHO cells stably expressing hERG

Chain of human ether-à-go-go-related gene (hERG) potassium channel (Q12809 whole entry, looked up): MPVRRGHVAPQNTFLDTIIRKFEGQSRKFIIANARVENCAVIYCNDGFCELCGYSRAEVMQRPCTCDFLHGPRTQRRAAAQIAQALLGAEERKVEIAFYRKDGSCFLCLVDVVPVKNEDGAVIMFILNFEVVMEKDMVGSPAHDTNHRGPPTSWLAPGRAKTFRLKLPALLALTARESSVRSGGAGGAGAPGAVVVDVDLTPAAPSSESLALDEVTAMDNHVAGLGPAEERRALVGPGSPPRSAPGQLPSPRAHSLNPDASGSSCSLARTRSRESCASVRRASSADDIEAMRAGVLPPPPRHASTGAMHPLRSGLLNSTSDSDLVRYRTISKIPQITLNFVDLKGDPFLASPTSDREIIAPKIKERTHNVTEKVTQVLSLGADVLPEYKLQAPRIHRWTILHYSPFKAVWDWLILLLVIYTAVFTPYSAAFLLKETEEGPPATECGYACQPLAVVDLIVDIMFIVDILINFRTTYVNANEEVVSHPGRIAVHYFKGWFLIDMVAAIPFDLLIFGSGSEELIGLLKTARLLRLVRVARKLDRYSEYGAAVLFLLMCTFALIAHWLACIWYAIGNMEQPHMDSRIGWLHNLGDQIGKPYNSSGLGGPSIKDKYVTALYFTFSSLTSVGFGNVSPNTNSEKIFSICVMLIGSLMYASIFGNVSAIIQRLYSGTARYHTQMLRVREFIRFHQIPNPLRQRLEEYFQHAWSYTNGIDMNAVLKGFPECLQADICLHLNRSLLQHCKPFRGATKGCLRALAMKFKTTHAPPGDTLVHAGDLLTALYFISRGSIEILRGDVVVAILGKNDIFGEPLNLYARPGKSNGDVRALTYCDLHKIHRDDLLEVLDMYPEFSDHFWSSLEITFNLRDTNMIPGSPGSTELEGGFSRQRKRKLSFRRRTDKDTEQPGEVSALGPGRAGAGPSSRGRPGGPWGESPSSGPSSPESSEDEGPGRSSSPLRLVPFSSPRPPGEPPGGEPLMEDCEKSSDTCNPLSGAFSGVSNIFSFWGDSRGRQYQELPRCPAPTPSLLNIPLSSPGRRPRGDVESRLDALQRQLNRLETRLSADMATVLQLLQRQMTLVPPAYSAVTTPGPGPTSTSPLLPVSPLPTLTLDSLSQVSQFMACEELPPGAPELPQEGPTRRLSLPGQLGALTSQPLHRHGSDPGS

SMILES | hERG current change (%, negative = inhibition) at 1uM
CCc1cccc(NC(=O)CCc2c(C)nn(-c3ccc(N4CCCCC4)nn3)c2C)c1 | -3.62%
COc1ccc(CNn2c(C)nc3ccccc3c2=O)cc1 | 11.7%
C/C(=N/O)c1ccc2ccc3ccccc3c2c1 | 10.7%
CC(C(=O)O/N=C(\N)c1cccnc1)c1ccc([N+](=O)[O-])cc1 (stereo not drawn) | -0.629%
C/C(CC(=O)Nc1ccc(N(C)C)cc1)=N\NC(=O)c1ccc(Cl)cc1Cl | 8.35%
O=C(COc1ccc(Cl)cc1)Nc1nnc(C2=COCCO2)o1 | 4.29%
CCc1ccc[n+](-c2nc([O-])sc2C=O)c1 | 13.1%
O=C(O)CCCC(=O)N(Cc1ccccc1)Cc1ccccc1 | 24.4%
Cc1ccc(NC(=O)c2oc3ccc(S(=O)(=O)N4CCOCC4)cc3c2C)c(C)c1 | 9.25%
CSc1ncccc1C(=O)OCC(=O)Nc1ccc2c(c1)OCO2 | 16.5%
COc1ccc(-c2csc3nc(C)n(-n4cccc4)c(=O)c23)cc1 | 4.6%
CCCC(OC(=O)CN1C(=O)COc2ccccc21)C(=O)NC1CCCC1 (stereo not drawn) | 1.27%
COc1ccc(NC(=O)c2cc(-c3ccc(OC)c(OC)c3)nc3ccccc23)c(OC)c1 | 11.9%
COc1ccccc1C(=O)NCC(=O)NC(C)CCc1ccccc1 (stereo not drawn) | 10.1%
CCc1ccc(NC(=O)CN(C(=O)N2CCN(CC)CC2)S(=O)(=O)c2ccc(C)cc2)cc1 | 16%
COc1ccc(NC(=O)CN(C)C(=O)CSc2ccc3c(c2)OCCO3)cc1 | 8.59%
CCN(CC)S(=O)(=O)c1ccc(NC(=O)CCNC(=O)c2ccccc2)cc1 | 8.18%
Cc1cccc(NC(=O)c2cc(S(=O)(=O)N3CCc4ccccc43)cn2C)c1 | 14.3%
CN(C)CCCNC(=O)C(=O)Nc1ccc2c(c1)N(S(=O)(=O)c1cccs1)CCC2 | 11.3%
O=C(CCc1nc2ccccc2c(=O)[nH]1)NNC(=O)COc1cccc(F)c1 | 5.35%
O=C1NNC(c2ccccc2)=N/C1=C\c1ccco1 | 9.06%
Cc1ccc(NC(=O)NCC2CCN(Cc3cccc(Cl)c3)CC2)cc1Cl | 2.87%

SMILES | hERG current change (%, negative = inhibition) at 1uM
O=C(CCl)Nc1cccc(-c2cnc3ccccc3n2)c1 | 3.28%
CCOC(=O)N1CCc2c(sc3c2c(=O)n(-c2ccc(CC)cc2)c(=O)n3CC(=O)NCC2CCCO2)C1 (stereo not drawn) | 18.3%
Cc1cc2c(cc1C)/C(=C\C(N)=O)NC(C)(C)C2 | 1.14%
Cc1nc2ccccc2c(=O)n1/N=C/c1cccs1 | 7.62%
CCOC(=O)c1c(C)nc2sc3c(=O)n(-c4ccc(OC)cc4)nnc3c2c1-c1ccc(OC)cc1 | 6.27%
O=c1c2[nH]c3cccc(Cl)c3c2ncn1CC1CCCO1 (stereo not drawn) | 6.28%
CCOC(=O)/C=C1\SCC(=O)N1CC(=O)NC(c1ccccc1)c1ccccc1 | 5.26%
C#CCOCCOCCOCCNc1nc(N2CCN(C(=O)CCCCCCCCCCNC(=O)[C@@H](CCC(=O)O)n3cc(CCCCCN)nn3)CC2)nc(N2CCN(C(=O)CCCCCCCCCCNC(=O)[C@H](CO)n3cc(CCCSC)nn3)CC2)n1 | 2.2%
CCCCNC(=O)OC1CCS(=O)(=O)C1 (stereo not drawn) | 10.9%
Cc1ccc(/C=N\NC(=O)c2cc(OCC(F)(F)F)ccc2OCC(F)(F)F)cc1 | 13.4%
COc1ccc2c(c1)C(=NO)c1cc(OC)ccc1-2 | 9.68%
Cc1ccc(C(=O)Nc2ncnc3sc4c(c23)CCCCC4)cc1 | 2.44%
Cc1cc(NC(=O)CCC(=O)N(Cc2ccccc2)C(C(=O)NC2CCCC2)c2ccco2)no1 (stereo not drawn) | 1.62%
CCOC(=O)c1csc(-n2nc(C)cc2C(F)(F)F)n1 | 5.13%
COc1ccc(OC)c(C(c2c(O)c3ccccc3oc2=O)c2c(C)n(C)n(-c3ccccc3)c2=O)c1 (stereo not drawn) | 7.07%
COc1c(OC)c2[nH]c(=O)cc3c4ccccc4n(c1=O)c23 | -2.06%
C=CCNC(N)=S | 17.7%
Cc1nc(N)sc1C(=O)N/N=C/c1cccnc1 | 16.1%
Cc1ccc(OCCOc2cccc(C=C3C(=O)NC(=O)NC3=O)c2)cc1 | 17.3%
O=C(CN1CCCC1)Nc1ccc(Cl)cc1C(=O)c1ccccc1.O=C(O)C(=O)O | 0.588%
CC(Cc1cccnc1)NC(=O)CCc1nnc(-c2ccccc2)o1 (stereo not drawn) | 2.17%
C[C@@H](CO)NC(=O)c1ccc2c3n(nc2c1)-c1ccccc1CO3 | 9.04%

SMILES | hERG current change (%, negative = inhibition) at 1uM
Cc1ccc(C)c(OCC(=O)N2CCOCC2)c1 | 8.83%
CCOc1ccc2[nH]c(=O)c(CN(CCN3CCCC3)C(=S)Nc3ccccc3OC)cc2c1 | -16.4%
COC(=O)c1nc2nc(-c3cccs3)cc(C(F)(F)F)n2n1 | 11.2%
COc1ccccc1N1CCN(S(=O)(=O)c2cc(Br)cnc2N)CC1 | 15.3%
CCOC(=O)C1=C(COC(=O)/C=C/c2cccc(OC)c2OC)NC(=O)NC1C (stereo not drawn) | 14%
COc1ccc(CNC(=O)C2CC(=O)N(C3CCCCC3)C2)cc1 (stereo not drawn) | 7.44%
CCOc1ccccc1NC(=O)CSc1nnc(-c2ccccc2Cl)n1Cc1ccco1 | 2.2%
O=C(Cc1cccs1)NCc1ccco1 | 8.47%
COc1ccc(Cl)cc1NC(=O)c1ccoc1C | 4.28%
O=S1(=O)C=C(SCCN2CCCCC2)c2ccccc21 | -6.62%
CN(CC(=O)Nc1ccc(Cl)c(C(F)(F)F)c1)C(=O)c1ccc2c(c1)NC(=O)CS2 | 0.635%
COc1cc(C(=O)OCC(=O)N(C)Cc2ccccc2)cc(OC)c1OC | 12.5%
COc1ccccc1Cc1nc(-c2ccncc2)no1 | 10.3%
N#Cc1ccccc1NC(=O)COc1c(Br)cc(Br)c2cccnc12 | 11.5%
COc1cccc(-c2ocnc2C(=O)Nc2ccc3c(c2)CCC3)c1 | 6.33%
CCC(NC(=O)c1ccc([N+](=O)[O-])cc1[N+](=O)[O-])c1ccccc1 (stereo not drawn) | -14.5%
O=C(O)c1cc(S(=O)(=O)Nc2cccc3ccccc23)c(Cl)cc1Cl | 22.6%
Cc1ccc(CNC(=O)CCc2ccc(S(=O)(=O)NC3CCCCC3)cc2)cc1 | 8.95%
O=C(CSc1nnnn1-c1ccc2c(c1)OCCO2)OC1CCCCC1 | 6.23%
COc1cc(OC)cc(C(=O)N/N=C2/SCC(=O)N2Cc2ccco2)c1 | 1.7%
CCCCNc1c2c(nc3c(-c4ccccc4)c(C)nn13)CCC2 | 4.47%
CCOc1ccc(NC(=O)c2sc3nc(C)nc(N4CCOCC4)c3c2C)cc1 | -5.28%

SMILES | hERG current change (%, negative = inhibition) at 1uM
Cc1sc2nc(CSc3ccccc3)nc(N3CCN(C)CC3)c2c1C | -4.21%
CCOc1ccc(N(CC(=O)NC2CCCCC2)S(=O)(=O)c2c(C)noc2C)cc1 | 4.49%
CCOc1c2c(nc3ccc(Cl)cc13)CCC2 | 9.86%
C[N+](C)(C)CCN(Cc1ccc(Cl)cc1)c1ccccn1.[I-] | 6.09%
CCCCNC(=O)C12CCC(C)(C(=O)C1Br)C2(C)C (stereo not drawn) | 4.09%
O=C(c1cccc(Br)c1)N1CCCC1 | 8.55%
CCOC(=O)c1[nH]c2cc3c(cc2c1NC(=O)CN1CCC(C)CC1)OCO3 | 2.44%
CCC(=O)c1cn([C@H](CCC(OC)OC)CC(=O)OC(C)(C)C)cc1CC | 12.6%
CC1CCCC(C)N1C(=O)CSc1nnc(CSc2ncccn2)n1C (stereo not drawn) | 11.5%
CCN(CC)S(=O)(=O)c1cc(C(=O)Nc2cccnc2Cl)ccc1Cl | 8.2%
Cc1ccc(NC(=O)c2ccc(S(=O)(=O)N3CCC(C)CC3)cc2)cc1 | -6.71%
CCCN(CC(=O)Nc1ccccc1C)C(=O)c1ccc(-c2ccc(C(C)=O)cc2)o1 | 1.78%
CCc1cc(=O)oc2cc(C)cc(OCC(=O)N3CCC[C@@H]3C(=O)O)c12 | 10.7%
CCc1ccc(S(=O)(=O)Nc2c(C)nc3nc[nH]n3c2=O)cc1 | 15.5%
CN(C)C(=O)CN1CCN(Cc2cn(C)nc2-c2ccc3c(c2)OCCO3)CC1 | 5.19%
CC(=O)N(C)c1ccc(NC(=O)N2CCOCC2)cc1 | 8.06%
COC(=O)C1C(c2ccc(OC)c(OC)c2)NC(c2ccc(OC)c(OC)c2)C(C(=O)OC)S1(=O)=O (stereo not drawn) | 14.7%
CCN(CC(=O)Nc1c(F)cccc1F)C(=O)c1ccc(-c2ccc(C(C)=O)cc2)o1 | 2.62%
O=C(CCc1ccccc1)NCCCN1CCOCC1 | 11%
O=C(c1cc(C(=O)NCc2ccccc2)c(=O)n(Cc2ccccc2)c1)c1cc(Br)ccc1O | -4.05%
COc1ccc(CN2C(=O)[C@@H]3Cc4c([nH]c5ccccc45)C(C)(C)N3C2=O)cc1 | 9.64%
